Experimental data: PubChem BioAssay AID360 (National Center for Advancing Translational Sciences (NCATS), 2006)
The whole screen tested about 48,000 compounds, of which about 550 (1.1%) were called active. About 4% were inconclusive and are not listed. Rule as the data show it: active = potency below about 15 µM; inconclusive = mostly about 16 µM to 33 µM; inactive = weaker than that. The list shows a part of the results.

target: Lysosomal acid glucosylceramidase (Homo sapiens) (UniProt P04062); assay: Glucocerebrosidase; details: purified enzyme, resorufin glucoside fluorescence (screen aimed at inhibitors), 20 min;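 also: the screen sought inhibitors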
Method in brief: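 Wild-type enzyme at 0.2 nM final in 50mM citric acid/KH2PO4, 10mM sodium taurocholate, 0.01% tween-20, pH 5.9, with resorufin beta-D-glucopyranoside at 30 uM final. Compounds titrated, 20 min at RT, red fluorescence read; AC50 from titration.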
Potency is read from the fitted curve at half-maximal effect.

Sequence of UniProt P04062 (P04062 whole entry, looked up): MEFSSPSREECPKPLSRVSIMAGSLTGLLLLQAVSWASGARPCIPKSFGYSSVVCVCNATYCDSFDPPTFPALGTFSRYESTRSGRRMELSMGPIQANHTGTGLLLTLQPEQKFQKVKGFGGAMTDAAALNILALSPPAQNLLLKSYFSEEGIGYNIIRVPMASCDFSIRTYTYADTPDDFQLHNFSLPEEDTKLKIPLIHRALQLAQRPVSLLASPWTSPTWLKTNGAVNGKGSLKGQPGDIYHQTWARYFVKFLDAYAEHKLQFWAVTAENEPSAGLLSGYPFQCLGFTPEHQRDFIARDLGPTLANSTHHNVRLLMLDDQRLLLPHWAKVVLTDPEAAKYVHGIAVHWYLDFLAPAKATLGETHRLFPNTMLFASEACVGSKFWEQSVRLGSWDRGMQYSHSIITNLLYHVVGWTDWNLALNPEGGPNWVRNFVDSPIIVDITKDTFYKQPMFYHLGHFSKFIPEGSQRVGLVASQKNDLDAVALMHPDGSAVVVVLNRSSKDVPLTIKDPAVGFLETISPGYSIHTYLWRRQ

Potency, inactive:
COc1cc(C(=S)N2CCCC2)cc(Cl)c1O > 76.9 µM
Cn1c(COc2ccc3ccccc3c2)nnc1SCC(=O)O > 76.9 µM
CCOC(=O)C1CCN(c2c(NCc3ccc(C(=O)NC(C)CC)cc3)c(=O)c2=O)CC1 (centres undefined) > 76.9 µM
CC(=O)NC(C)C(=O)OCc1ccc(Cl)cc1Cl (centres undefined) > 76.9 µM
C=CCSc1nc2ccccc2n1Cc1nnc(-c2cccs2)o1 > 76.9 µM
CCC1CCCCN1C(=O)CSc1nnc(CNC(=O)COc2ccc(Cl)cc2)o1 (centres undefined) > 76.9 µM
CCN(CC)S(=O)(=O)c1ccc2c(c1)nc(CCC(=O)OCc1c(C)noc1C)n2C > 76.9 µM
O=C1NC2(CCCCC2)Oc2ccccc21 > 76.9 µM
O=C(O)COc1ccc2occ(C(=O)c3ccccc3)c2c1 > 76.9 µM
O=C(NCCCN1CCCC1)c1cccc(N2CCCC2=O)c1 > 76.9 µM
Cc1nc2ccccn2c1/C(O)=C1\C(=O)C(=O)N(CCN2CCOCC2)C1c1cccs1 (centres undefined) > 76.9 µM
CC[C@@H](C)[C@H](NC(=O)OC(C)(C)C)c1nnc(S(=O)(=O)Cc2cc(C)ccc2C)o1 > 76.9 µM
CCCN1C2CCCC1CC(NC(=O)c1ccc(F)cc1)C2 (centres undefined) > 76.9 µM
CCN(CC)S(=O)(=O)c1cccc(-c2nnc(SCC(N)=O)n2CCc2ccccc2)c1 > 76.9 µM
CCc1nc2oc3ccccc3c(=O)c2c(=O)n1-c1ccccc1 > 76.9 µM
COc1ccc(-n2c(N)c(-c3nc4ccccc4n3C)sc2=S)cc1 > 76.9 µM
Cc1nc(C)c(C(=O)OCC(=O)N2CCN(c3ccccc3)CC2)s1 > 76.9 µM
Cc1ccc(-c2nc(C3CCN(S(=O)(=O)c4ccc(C(F)(F)F)cc4)CC3)no2)cc1 > 76.9 µM
COc1ccccc1-c1cc(C(=O)Nc2ccc(F)cc2F)no1 > 76.9 µM
Cc1onc(-c2ccccc2)c1C(=O)N1CCCN(C(=O)c2c(-c3ccccc3)noc2C)CC1 > 76.9 µM
Cc1cc(C)nc(NC(=O)c2c(-c3c(Cl)cccc3Cl)noc2C)n1 > 76.9 µM
CC(OC(=O)c1cccc(NS(C)(=O)=O)c1)C(=O)Nc1ccc(N2CCOCC2)cc1 (centres undefined) > 76.9 µM
CCn1c2ccccc2c2cc(/C=N/n3cnnc3)ccc21
CCCn1c(=O)[nH]c(=O)c2c1nc(-c1ccccc1OC(F)F)n2CCOC > 76.9 µM
CCOc1ccccc1N1CCN(C(=O)c2cccc(-c3ccc(O)cc3)c2)CC1 > 76.9 µM
C=C1C2(C(=O)NCc3ccco3)CCC(C2)C1(C)C (centres undefined) > 76.9 µM
CC(C)NS(=O)(=O)c1ccc(CCC(=O)NCc2cccnc2)cc1 > 76.9 µM
CCCCOc1ccc(C(=O)Nc2ccc(N3CCN(C(=O)C(C)C)CC3)cc2)cc1 > 76.9 µM
CCCCC1CCC(C(=O)NC2CCS(=O)(=O)C2)CC1 (centres undefined)
CC1Cc2ccccc2N1C(=O)COc1cccc(-n2cnnn2)c1 (centres undefined) > 76.9 µM
Cc1ccnc(N2CCC(C(=O)NCc3ccc4c(c3)OCO4)CC2)n1 > 76.9 µM
O=S1(=O)CCC(SCc2nc3sccn3c2Br)C1 (centres undefined) > 76.9 µM
CCOc1[nH]c(/N=C/c2ccco2)c(C#N)c1C#N
COc1nc(C)ccc1-c1noc(-c2ccccn2)n1 > 76.9 µM
COc1ccc(C(=O)CSc2nnc(-c3cnccn3)n2Cc2ccco2)cc1 > 76.9 µM
Cc1ccc(-n2nnnc2SCC(=O)N2CCN(C(=O)c3ccco3)CC2)c(C)c1 > 76.9 µM
COc1cccc(NC2=NCC(=O)N2Cc2cccs2)c1 > 76.9 µM
CCOC(=O)c1c(C)n(C)c2ccc(OC)c(NS(=O)(=O)c3ccc(Cl)s3)c12 > 76.9 µM
Cc1ccc(-n2c(CSc3nc(C)cc(C)n3)nnc2SCC(=O)N2CCCC2)cc1 > 76.9 µM
OCCNc1nc(C2CC2)nc2c1nnn2Cc1ccccc1Cl > 76.9 µM
CC(C)NCC(O)COCc1ccc(Cl)cc1 (centres undefined) > 76.9 µM
Cc1c2c(nc3c(C(=O)NC4CC4)cnn13)CCCC2 > 76.9 µM
CN(C)C(=O)CN1C(=O)C2CCCCN2C(=O)c2ccccc21 (centres undefined) > 76.9 µM
Cc1cccc(-n2ccnc2SCC(=O)Nc2ccc3c(c2)OCCO3)c1 > 76.9 µM
O=C(O)CN1C(=O)CC(Cc2ccccc2)C1=O (centres undefined) > 76.9 µM
COC(=O)c1cc(NCc2c(F)cccc2Cl)ccc1N1CCOCC1 > 76.9 µM
CCC(C)(C(=O)NC1CCCC1)N(C(=O)c1cnccn1)c1c(C)n(C)n(-c2ccccc2)c1=O (centres undefined) > 76.9 µM
O=C(Cn1cccc1)NC1CCCCCC1 > 76.9 µM
COCc1nnc(NC(=O)CCCOc2ccccc2)s1 > 76.9 µM
O=C1CCN2C=Nc3cccc4ccc1c2c34 > 76.9 µM
NC(=O)CSc1nnc(CNc2ccc(F)cc2)n1CC1CCCO1 (centres undefined) > 76.9 µM
CCOc1ccc(CCNS(=O)(=O)c2cnc[nH]2)cc1OCC > 76.9 µM
Nn1cc(-c2ccccc2)nc1SCC(=O)N1CCN(S(=O)(=O)c2ccc(Cl)cc2)CC1 > 76.9 µM
CN(C)S(=O)(=O)N1CCN(CC(=O)Nc2cc(Cl)ccc2Cl)CC1 > 76.9 µM
COc1ccc(OC)c(C2=NO[C@@H]3C(=O)N(c4cc(Cl)ccc4OC)C(=O)[C@H]23)c1 > 76.9 µM
FC(F)(F)c1cc(-c2ccco2)nc(-n2nnc3ccccc32)n1 > 76.9 µM
CC(=O)NC(Cc1ccc(F)cc1)C(=O)N1CCN(C(=O)NCc2ccccc2)CC1 (centres undefined) > 76.9 µM
O=C(CSc1ccc2c(c1)OCCO2)NC(=O)NC1CCCC1 > 76.9 µM
CCn1cc(C(=O)N2CCCc3ccccc32)c2cc(OC)c(OC)cc2c1=O > 76.9 µM
CCOCCCNC(=O)c1c[nH]c2ccc(S(=O)(=O)Nc3cccc(OC)c3)cc2c1=O > 76.9 µM
CCCc1cc(=O)n2c(nc3ccccc32)[nH]1 > 76.9 µM
CCc1ccc(S(=O)(=O)NCc2csc(-c3ccccc3)n2)s1 > 76.9 µM
Cc1cc(NC(=O)c2cc3n(n2)C(C(F)(F)F)CC(c2ccc(Cl)c(Cl)c2)N3)no1 (centres undefined) > 76.9 µM
CC(=O)C(C)Oc1cc(C)cc2oc(=O)c(C)c(C)c12 (centres undefined) > 76.9 µM
CC1Cc2ccccc2N1c1ncnc2c1nnn2Cc1ccccc1 (centres undefined) > 76.9 µM
CN(C(=O)c1cnccn1)c1nnc(-c2cccnc2)s1 > 76.9 µM
COc1ccc(OC)c(CN2C(=O)CCC2(C)C(=O)NC2CCCCCC2)c1 (centres undefined) > 76.9 µM
OC(COc1c(F)cc(Br)cc1F)CN1CCN(c2ccc(F)cc2)CC1 (centres undefined) > 76.9 µM
CC(C)CCOc1ccc(C(=O)O)cc1 > 76.9 µM
COCCNC(=O)c1nn(-c2cc(OC)cc(OC)c2)c(=O)c2ccccc12 > 76.9 µM
COc1ccc(C)cc1-n1nnnc1SCc1cc(=O)n2cc(C)ccc2n1 > 76.9 µM
CC(=O)NC1C(=O)SC1(C)C (centres undefined) > 76.9 µM
COc1ccc(C(=O)NCc2nnc(SCC(=O)N3CCC(C)CC3)o2)cc1OC > 76.9 µM
Cc1cc(C(=O)OCC(=O)N2CCc3ccccc32)c(C)o1 > 76.9 µM
CC(C)n1c(SCC(=O)N2CCCC2)nc2c1c(=O)n(C)c(=O)n2C > 76.9 µM
CCOC(=O)C1CCN(C(=O)C2(NC(=O)Nc3ccccc3Cl)CCCCC2)CC1 > 76.9 µM
Cc1ccccc1OCc1nc(-c2ccc(NC(=O)c3ccc4c(c3)OCO4)cc2)no1 > 76.9 µM
COc1cc(CN2CCN(C(=O)CC(C)C)CC2)cc(OC)c1O > 76.9 µM
CC(C)c1nnc(N2C(=O)c3oc4ccccc4c(=O)c3C2c2ccco2)s1 (centres undefined) > 76.9 µM
Cc1noc(C)c1COc1ccc(C(=O)OCC(=O)N2CC3(C)CC2CC(C)(C)C3)cc1 (centres undefined) > 76.9 µM
Cc1n[nH]c(C)c1S(=O)(=O)N1CCCC(C(=O)Nc2nccs2)C1 (centres undefined) > 76.9 µM
CCOC(=O)c1ccc(COC(=O)CNC(=O)CNC(=O)c2ccc(OC)cc2)o1 > 76.9 µM
O=C(c1ccc(Cl)cc1)C1C2C(=O)N(c3ccccc3)C(=O)C2C2CCCN21 (centres undefined) > 76.9 µM
Cc1cccn2c(=O)c3cc(C(=O)N4CCc5ccccc5C4)n(C)c3nc12 > 76.9 µM
O=C(C1COc2ccccc2O1)N1CCN(c2ccc(F)cc2)CC1 (centres undefined) > 76.9 µM
CCOC(=O)C1=C(C)NC(=O)NC1c1ccc(Cl)cc1Cl (centres undefined) > 76.9 µM
CCCNC(=O)c1cc(S(=O)(=O)N2CCc3ccccc32)ccc1F > 76.9 µM
O=P(O)(CP(=O)(c1ccccc1)c1ccccc1)c1ccccc1 > 76.9 µM
O=C(Nc1ncnc2sc3c(c12)CCCCC3)c1ccco1 > 76.9 µM
